Data on 30 molecules can be found in PubChem BioAssay AID1745853 (National Center for Advancing Translational Sciences (NCATS), 2022).

Structures are written as SMILES. The list shows a part of the results. These are further read-outs of the screen, such as a control signal, another cell line or another target. No call is given for them.

Holding throughout (assay): Primary Screen for Target Class Profiling of Small Molecule Inhibitors of Methyltransferases
Experiment [1] has as its target Glycine N-methyltransferase (Homo sapiens) (UniProt Q14749). Conditions: purified enzyme, MTase-Glo SAH luminescence; measured here: GNMT inhibition; at 40 µM; stronger effect = lower value. An outline of the steps: (§1)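 Each enzyme was assayed with SAM and its substrate. SAH formation detected by MTase-Glo luminescence; single-point 40 uM screen[…].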
The target in experiment [2] is Guanidinoacetate N-methyltransferase (Homo sapiens) (UniProt Q14353). As to conditions: purified enzyme, MTase-Glo SAH luminescence; measured here: GAMT inhibition; at 40 µM; stronger effect = lower value. An outline of the steps:
as §1

Experiment [3] has as its target Histamine N-methyltransferase (Homo sapiens) (UniProt P50135). Conditions: purified enzyme, MTase-Glo SAH luminescence; measured here: HNMT inhibition; at 40 µM; stronger effect = lower value. The procedure, abridged: as §1
Experiment [4] concerns the target Nicotinamide N-methyltransferase (Homo sapiens) (UniProt P40261). As to conditions: purified enzyme, MTase-Glo SAH luminescence; measured here: NNMT inhibition; at 40 µM; stronger effect = lower value. An outline of the steps: as §1
Experiment [5] deals with Phenylethanolamine N-methyltransferase (Homo sapiens) (UniProt P11086). As to conditions: purified enzyme, MTase-Glo SAH luminescence; measured here: PNMT inhibition; at 40 µM; stronger effect = lower value. An outline of the steps:
as §1
On the % scale 0 is the no-effect control and ±100 the full control effect.

In the case of `COc1ccc(CNC(=O)Cn2ccc3cc(S(=O)(=O)N4CCCC4)ccc32)c(OC)c1`, the activity change, negative = inhibition in experiment [1] stood at 5.2%; in experiment [2] it was 4.62%; in experiment [3] it was 5.27%; in experiment [4], 0.727%; in experiment [5] it was 3.13%.

Take `Cc1cc(F)ccc1NS(=O)(=O)c1cc2c(cc1Cl)n(C)c(=O)n2C`: the activity change, negative = inhibition in experiment [1] came out at 12.2%; in experiment [2], 1.89%; in experiment [3], 3.18%; in experiment [4] it was 7.9%; in experiment [5], 8.78%.

With `CCCN1C(=O)c2cc(C(=O)NCc3ccccn3)nn2CC1(C)C(=O)NC1CCCC1` (stereo unspecified), the activity change, negative = inhibition in experiment [1] is 4.7%; in experiment [2], 0%; in experiment [3] it was -5.35%; in experiment [4], 1.21%; in experiment [5], 3.23%.

With `CCCn1c(=O)c2ccc(C(=O)NC3CCCCC3)cc2n2c(=O)n(CC(=O)Nc3cccc(C)c3)nc12`, the activity change, negative = inhibition in experiment [1] was found to be 1.54%; in experiment [2], 0.846%; in experiment [3], 4.13%; in experiment [4], 2.3%; in experiment [5] it was 2.5%.

As for `Cc1ccc(N2C(=O)c3cc(-c4cccs4)nn3CC2(C)C(=O)NC2CCCCC2)c(C)c1` (stereo unspecified), the activity change, negative = inhibition in experiment [1] turned out to be 5.08%; in experiment [2] it was 0%; in experiment [3], 8.39%; in experiment [4] it was 3.11%; in experiment [5], 4.45%.

With `OC[C@H]1O[C@@H](O[C@H]2[C@H](OCCc3ccccc3)O[C@H](CO)[C@@H](O)[C@@H]2O)[C@H](O)[C@@H](O)[C@@H]1O`, the activity change, negative = inhibition is -4.16% in experiment [1]; -3.66% in experiment [2]; 3.79% in experiment [3]; -12.6% in experiment [4]; -10.6% in experiment [5].

As to `Clc1ccc2ncc(-c3cccc(NC4CNC4)n3)n2c1`, the activity change, negative = inhibition in experiment [1] is 4.43%; in experiment [2], -0.951%; in experiment [3] it was -39.3%; in experiment [4], -5.56%; in experiment [5], 0.078%.

Take `COc1cccc(CN2C(=O)c3cc(-c4ccco4)nn3CC2(C)C(=O)NC2CCCCC2)c1` (stereo unspecified): the activity change, negative = inhibition is -11.8% in experiment [1]; -10.4% in experiment [2]; -0.037% in experiment [3]; -16.3% in experiment [4]; -9.82% in experiment [5].

For `CC(C)Oc1ccc(CN2C(=O)c3cc4occc4n3CC2(C)C(=O)NC2CCCCCCC2)cc1` (stereo unspecified), the activity change, negative = inhibition in experiment [1] was -1.48%; in experiment [2], 0%; in experiment [3] it was 7.59%; in experiment [4] it was -4.84%; in experiment [5] it was -1.15%.

Regarding `Cn1nnnc1C1CCCN(C(=O)c2ccc(F)cc2)C1` (stereo unspecified), the activity change, negative = inhibition in experiment [1] is -0.779%; in experiment [2], -0.578%; in experiment [3] it was 1.19%; in experiment [4] it was -1.71%; in experiment [5] it was -3.22%.

Turning to `CC1CN(S(=O)(=O)c2ccc3[nH]c4c(c3c2)CCCC4)c2ccccc2O1` (stereo unspecified), the activity change, negative = inhibition was 12.2% in experiment [1]; 6.02% in experiment [2]; 9.97% in experiment [3]; -5.5% in experiment [4]; 6.15% in experiment [5].

For `CN(C)C(=O)CN1CCCC(N2CCN(c3cccc(C(F)(F)F)c3)CC2)C1` (stereo unspecified), the activity change, negative = inhibition was -9.45% in experiment [1]; -18.2% in experiment [2]; -3.39% in experiment [3]; -13.7% in experiment [4]; -11.5% in experiment [5].

As for `CC1CCCN1C(=O)c1cc(-c2cnn(C(C)C)c2)nc2cc(F)ccc12` (stereo unspecified), the activity change, negative = inhibition in experiment [1] was -6.9%; in experiment [2], -14.1%; in experiment [3] it was -6.19%; in experiment [4], -22.4%; in experiment [5], -17.8%.

Regarding `CC(C)(C)NCC(O)COc1cccc2[nH]c(=O)[nH]c12` (stereo unspecified), the activity change, negative = inhibition is -6.58% in experiment [1]; 3.57% in experiment [2]; -1.02% in experiment [3]; -7.97% in experiment [4]; -1.65% in experiment [5].

In the case of `CC(C)Oc1cccc(-c2nnc(CCC(=O)NCCc3cccs3)c(=O)[nH]2)c1`, the activity change, negative = inhibition is -8.09% in experiment [1]; -5.56% in experiment [2]; -6.5% in experiment [3]; -11.1% in experiment [4]; -4.26% in experiment [5].

Consider `CN(Cc1ccc(F)cc1)C(=O)c1cn(Cc2ccccc2C(F)(F)F)nn1`, for which the activity change, negative = inhibition is -4.94% in experiment [1]; -7.34% in experiment [2]; -1.07% in experiment [3]; -15% in experiment [4]; -16.4% in experiment [5].

`O=C(O)c1ccccc1NC(=O)N1CCC(c2ccccc2C(F)(F)F)CC1`: the activity change, negative = inhibition in experiment [1] was -4.4%; in experiment [2], -3.77%; in experiment [3], 7.92%; in experiment [4] it was -24.3%; in experiment [5], -4.02%.

With `CCc1ccc(S(=O)(=O)c2nnn3c2nc(NCc2ccccc2)c2ccccc23)cc1`, the activity change, negative = inhibition is 3.12% in experiment [1]; 2.74% in experiment [2]; 2% in experiment [3]; -1.96% in experiment [4]; -0.291% in experiment [5].

Turning to `COc1ccc(OC)c(CCN2C(=O)c3cc4occc4n3CC2(C)C(=O)NC2CCCCCC2)c1` (stereo unspecified), the activity change, negative = inhibition is -8.85% in experiment [1]; 0.633% in experiment [2]; -6.62% in experiment [3]; -6.79% in experiment [4]; -7.71% in experiment [5].

For `Cc1cccc(CN2CC(Oc3cccc(C(=O)NCC4CC4)c3)C2)c1`, the activity change, negative = inhibition is -11.5% in experiment [1]; -18.5% in experiment [2]; -11.5% in experiment [3]; -22.4% in experiment [4]; -16.6% in experiment [5].

`CCN(CC)CCNc1ccc2ncn3c4ccc(O)cc4c(=O)c1c23`: the results for the activity change, negative = inhibition in experiment [2], in experiment [4] and in experiment [5] were 7.02%, -27.5% and -13.6%, respectively.

Regarding `Cc1ccc(C)c(OCC(=O)N[C@H]2CCOC[C@H]2C2CCOCC2)c1C`, the activity change, negative = inhibition is -1.24% in experiment [1]; -0.419% in experiment [2]; -0.008% in experiment [3]; 1.11% in experiment [4]; -3.07% in experiment [5].

For the molecule `COC(=O)C[C@H]1[C@]2(C)C3=C(C)[C@H](c4ccoc4)C[C@H]3O[C@@H]2[C@H](OC(C)=O)C2[C@](C)(C(=O)OC)C=CC(=O)[C@@]21C` (stereo partly specified), the activity change, negative = inhibition in experiment [1] is 3.78%; in experiment [2], 2.54%; in experiment [3], 7.53%; in experiment [4] it was -9.84%; in experiment [5] it was -2.17%.

Take `Cc1cn([C@H]2C[C@H](O)[C@@H](CO)O2)c(=O)nc1N`: the activity change, negative = inhibition in experiment [2] was 9.49%; in experiment [4], -8.35%; in experiment [5], 1.99%.

In the case of `O=C(c1ccccc1OC(F)(F)F)N1CCC(c2n[nH]c(=O)n2-c2ccccc2)CC1`, the activity change, negative = inhibition is -1.37% in experiment [1]; 1.74% in experiment [2]; 1.12% in experiment [3]; -0.909% in experiment [4]; 2.03% in experiment [5].

Regarding `CC1CCC(NC(=O)C2(C)Cc3ccccc3C(=O)N2CCc2ccccc2)CC1` (stereo unspecified), the activity change, negative = inhibition is -8.24% in experiment [1]; -0.288% in experiment [2]; -7.77% in experiment [3]; -4.36% in experiment [4]; -11.5% in experiment [5].

`Cc1ccc2c(c1)c(-n1cccc1)c1n2CC(C)(C(=O)NC2CCCCCC2)N(Cc2ccco2)C1=O` (stereo unspecified): the activity change, negative = inhibition is -11.7% in experiment [1]; -3.96% in experiment [2]; 2.48% in experiment [3]; -5.88% in experiment [4]; -4.39% in experiment [5].

Turning to `Cc1ccc(C(=O)Cn2nc3n(CC(C)C)c(=O)c4ccc(C(=O)NCC(C)C)cc4n3c2=O)c(C)c1`, the activity change, negative = inhibition in experiment [1] amounted to 4.38%; in experiment [2] it was 2.23%; in experiment [3], 7.01%; in experiment [4] it was 0.587%; in experiment [5], 2.51%.

Regarding `CCCS(=O)(=O)N1C[C@@H]2C(=O)N(CCC3CCN(C(C)C)CC3)C(=O)[C@@H]2C1`, the activity change, negative = inhibition in experiment [1] is -1.74%; in experiment [2] it was -1.89%; in experiment [3] it was -5.48%; in experiment [4] it was -4.42%; in experiment [5] it was 2.73%.

With `O=C(Cc1ccccn1)NCCNC(=O)c1cccc(-c2ccc(C(F)(F)F)cc2)c1`, the activity change, negative = inhibition is -0.74% in experiment [1]; -0.072% in experiment [2]; 0.781% in experiment [3]; 0.48% in experiment [4]; 0.646% in experiment [5].
